Source: PubChem BioAssay AID1159614 (National Center for Advancing Translational Sciences (NCATS), 2016)
Screen size: about 45,000 compounds; about 65 (0.1%) were called active. Calls come from the whole dose curve; as a rule, active = well fitted activation curve with a large enough effect; inconclusive = small, poorly fitted or top-dose-only effect; inactive = no such curve, though single readings can be large or run the other way. The list shows a part of the results.

These compounds were tested against Galactocerebrosidase (Homo sapiens) (UniProt P54803) (assay: A Novel Cell-Based Assay to Identify Small Molecules for B -Galactocerebrosidase). Details: 145M-Twi-hGALC-G270D cells (Twitcher mouse brain line with human GALC G270D), HMU-beta-Gal fluorescence, 48 h; series mostly up to 57.5 µM; activation: at the top concentration.
UniProt P54803, sequence (P54803 whole entry, looked up): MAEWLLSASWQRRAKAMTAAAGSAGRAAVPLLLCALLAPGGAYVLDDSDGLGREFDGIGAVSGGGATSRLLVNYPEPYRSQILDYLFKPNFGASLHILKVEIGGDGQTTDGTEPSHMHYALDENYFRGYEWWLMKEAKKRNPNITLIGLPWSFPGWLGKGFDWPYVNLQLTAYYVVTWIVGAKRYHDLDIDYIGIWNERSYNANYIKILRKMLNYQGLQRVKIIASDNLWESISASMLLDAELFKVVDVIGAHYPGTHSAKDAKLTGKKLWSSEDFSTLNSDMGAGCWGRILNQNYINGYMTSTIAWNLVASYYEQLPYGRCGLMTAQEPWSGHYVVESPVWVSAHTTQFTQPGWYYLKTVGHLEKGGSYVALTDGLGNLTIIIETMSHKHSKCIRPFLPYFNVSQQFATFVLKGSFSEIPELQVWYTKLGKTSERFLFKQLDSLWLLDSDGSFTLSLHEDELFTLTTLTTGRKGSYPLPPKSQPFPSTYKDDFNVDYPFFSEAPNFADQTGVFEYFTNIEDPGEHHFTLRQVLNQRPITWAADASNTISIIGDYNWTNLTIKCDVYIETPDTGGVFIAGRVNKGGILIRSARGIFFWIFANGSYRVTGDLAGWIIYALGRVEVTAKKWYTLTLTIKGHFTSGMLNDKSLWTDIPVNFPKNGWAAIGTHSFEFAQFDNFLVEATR
In short: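 Mutant human GALC (G270D), stably expressed in a Twitcher mouse brain cell line lacking endogenous GALC, is measured in live-treated cells via 6-hexadecanoylamino-4-methylumbelliferyl-β-galactoside hydrolysis (0.1 mM final, pH 5.2) with fluorescent detection.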
Note: 0% is about no effect; nearly all actives have a fitted effect of over 65% in size.

SMILES | activation
Cn1cnc(S(=O)(=O)N2CCCC(C(=O)NCc3ccccc3)C2)c1 (stereo not given) | inactive: -6.19%
Cc1cccc(N2CCN(C(=O)Cn3ncc4c([nH]c5ccccc54)c3=O)CC2C)c1 (stereo not given) | inactive: -8.54%
COc1cccc(NC(=O)c2c(N3CCCC3=O)c3cc(C)ccc3n2C)c1 | inactive: -33.4%
CCOc1ccc(CNC(=O)c2cnc3sc(N(CC)CC)nn3c2=O)cc1 | inactive: -14.8%
O=C(NCCS(=O)(=O)N1CCN(c2ccccc2F)CC1)C1CC(=O)N(c2ccccc2)C1 (stereo not given) | inactive: -4.7%
Nc1nc(F)nc2c1ncn2[C@@H]1O[C@H](CO)[C@@H](O)[C@@H]1O | inactive: -6.73%
O=C(CSc1nc2ccccc2nc1Cc1ccccc1)Nc1ccccc1C(F)(F)F | inactive: -2.72%
COc1ccc(S(=O)(=O)NCCc2sc3nc(-c4ccc(C)cc4)nn3c2C)cc1F | inactive: -3.2%
Cc1c(OCC(F)(F)F)ccnc1CS(=O)c1nc2ccccc2[nH]1 (stereo not given) | inactive: -19.4%
CCOc1ccc(-n2ccnc2SCC(=O)Nc2ccc3c(c2)OCO3)cc1 | inactive: -14.2%
CCCCN(Cc1ccccc1)S(=O)(=O)c1cc(Br)cc2c1N(C(C)=O)CC2 | inactive: -11.2%
CCc1ccccc1NC(=O)C(CC)Oc1ccccc1-c1nnc(-c2ccccc2)o1 (stereo not given) | inactive: 0.32%
CCOc1ccc(CCNC(=O)c2cccc(-n3c(C)nc4cccnc43)c2C)cc1 | inactive: -19.3%
CCOC(=O)CCCN1C(=O)CCn2nc(-c3cn(C)c4ccccc34)cc21 | inactive: -8.66%
COc1ccc(-c2nc3c(c(SCC(=O)Nc4ccccc4OC)n2)Cc2cccc(C)c2O3)cc1 | inactive: -7.21%
CCCSc1ncc(Cl)c(C(=O)Nc2scc(-c3ccc(C)cc3)c2C(=O)OCC)n1 | inactive: -10.4%
CCCCC(=O)Nc1c(C(=O)N2CCN(c3ccccc3)CC2)oc2ccccc12 | inactive: -13.8%
CCOc1ccc(CNC(=O)c2cccn2-c2nnc(N3CCCCC3)s2)cc1OC | inactive: -0.442%
CCOCCCNC(=O)c1cc(=O)[nH]c2ccc(S(=O)(=O)N3CCCC3)cc12 | inactive: -14%
CCc1cccc(C)c1NC(=O)C1CCN(S(=O)(=O)c2cccc3nonc23)CC1 | inactive: -10.1%
COc1ccc(C(=O)Nc2c(C(=O)c3ccc(F)cc3)oc3ccccc23)cc1 | inactive: -9.84%
O=C1CC(c2ccc(Cl)cc2)c2cc3c(cc2N1)OCCO3 (stereo not given) | inactive: -9.63%
Cc1ccc(-n2c(=O)c3oc4ccccc4c3n(CC(=O)Nc3ccc(F)c(Cl)c3)c2=O)cc1C | inactive: -5.15%
N#Cc1ccccc1NC(=O)C(=O)NCC(c1ccc2c(c1)OCO2)N1CCOCC1 (stereo not given) | inactive: -10.8%

SMILES | activation
O=C(CS(=O)(=O)c1cccc2nsnc12)Nc1ccc(F)cc1F | inactive: -9.91%
CCC(C)NC(=O)Cc1ccc(NC(=O)N2CCCCc3ccccc32)cc1 (stereo not given) | inactive: 0.599%
Cc1cc(C)cc(OCc2cc(=O)n3c4c(sc3n2)CCCC4)c1 | inactive: -2.21%
CCCCN(C)C(=O)c1ccc2c(c1)N(Cc1ccc(F)cc1)C(=O)c1ccccc1S2(=O)=O | inactive: -26.8%
O=C(Nc1ccccc1F)C1CCN(S(=O)(=O)c2ccc3c(c2)CCCN3C(=O)C2CCC2)CC1 | inactive: 23.9%
Cc1ccc(-c2nc(CS(=O)CC(=O)N3CCN(c4ccc(F)cc4)CC3)c(C)o2)cc1 (stereo not given) | inactive: -9.57%
CC(C)CCNC(=O)c1c2c(nc3ccccc13)C(=O)N(C1CCCCC1)C2 | inactive: -6.3%
CC(=O)N1CCOc2cc(S(=O)(=O)Nc3c(C)cccc3C(C)C)c(Cl)cc21 | inactive: -22.2%
COC(=O)c1ccccc1NC(=O)N1CCC(n2c(C)nc3cccnc32)CC1 | inactive: -4.97%
COCCNC(=O)c1c(NC(=O)c2cc(=O)c3cc(Cl)ccc3o2)sc2c1CCCC2 | inactive: -17.7%
COc1cc(OC)c(N(C)C(=O)Cn2ncc3c(=O)oc4ccccc4c32)cc1Cl | inactive: -24.2%
Cc1ccc(CN2C(=O)N(c3ccccc3)C(=O)C2CC(=O)Nc2ccccc2)cc1 (stereo not given) | inactive: -11.9%
O=C(CN1C(=O)COc2ccc(S(=O)(=O)N3CCCCCC3)cc21)NCCc1ccccc1 | inactive: -6.67%
Cc1ccc(NC(=O)N2CCN(C)c3ncccc32)cc1C | inactive: -3.94%
Cc1ccc(CNC(=O)c2cc(=O)c3cc(C)cc(C)c3o2)cc1 | inactive: -7.85%
CC(=O)N1CCN(c2csc3ccc(Br)cc3c2=O)CC1 | inactive: -11.6%
CCC(C)NC(=O)CSc1nc(-c2ccc(F)cc2)cc(C(F)(F)F)n1 (stereo not given) | inactive: -9.57%
COC(=O)c1ccccc1NC(=O)c1cnc2sc(N3CCOCC3)nn2c1=O | inactive: -12.9%
COc1ccccc1NC(=O)Cn1nnc(C(=O)Nc2ccccc2Br)c1N | inactive: -11.6%
CCc1cccc(C)c1NC(=O)Cn1cc2c(n1)CCCCC2 | inactive: -14.8%
Cc1cccc(NS(=O)(=O)c2ccc3c(c2)OCC(C(=O)N2CCCC2)O3)c1C (stereo not given) | inactive: -5.61%
COc1cccc(C(=O)Nc2cccc(C(=O)OCc3cc(=O)n4c5c(sc4n3)CCCC5)c2)c1 | inactive: -4.68%
CCc1nn(CCCC(=O)NCc2cc(Br)ccc2OC)c(=O)c2cc3occc3n12 | inactive: -11.6%
CCOc1ccc(NC(=O)c2cc3cc4cc(OC)ccc4nc3s2)cc1 | inactive: -8.4%

SMILES | activation
COc1ccccc1-n1c(=O)c2c3c(sc2n(Cc2ccccc2F)c1=O)CN(C(C)=O)CC3 | inactive: -24.1%
Cc1ccc(S(=O)(=O)c2cn(CC(=O)Nc3ccc4c(c3)OCO4)c3ccccc3c2=O)cc1C | inactive: -18.6%
O=C(NCCS(=O)(=O)N1CCN(c2ccc(F)cc2)CC1)C1CC(=O)N(c2ccccc2)C1 (stereo not given) | inactive: -16.5%
COc1ccc2cc(CNc3ccc(C)cc3)c(=O)n(CC(=O)Nc3cccc(C(F)(F)F)c3)c2c1 | inactive: 6.25%
CCOC(=O)CSc1nc2c(sc3cccc(F)c32)c(=O)n1Cc1ccc(OC)cc1 | inactive: -1.09%
O=c1c2cccnc2n(Cc2cccc(F)c2)c(=O)n1Cc1ccccc1Cl | inactive: -2.98%
Cc1ccc(-c2nnc(Nc3ccc(O)cc3)c3ccccc23)cc1S(=O)(=O)N1CCCCC1 | inactive: -34.9%
CC(C)c1cc(-c2nc(-c3ccc(Br)cc3)no2)n[nH]1 | inactive: -17.4%
COc1ccc2[nH]c(=O)c(CN(C(=O)c3cccc(Cl)c3)c3cccc(C)c3)cc2c1 | inactive: -15.2%
CCN1CCN(c2ncc3c(n2)CCN(Cc2ccc(OC)c(OC)c2)C3)CC1 | inactive: -11.5%
CCCN1CCN(CCNC(=O)Nc2ccccc2OCC)CC1 | inactive: -5.58%
CCCN(Cc1cccs1)C(=O)Nc1ccc(Br)cc1F | inactive: -19.6%
Cc1cc2c(n1-c1ccc(C(=O)NCCc3ccccc3)cc1)CCC(C)C2 (stereo not given) | inactive: -1.41%
COc1cc(C(CC(=O)Nc2cc(C)ccn2)N2Cc3ccccc3C2=O)cc(OC)c1OC (stereo not given) | inactive: -21.9%
CCOC(=O)c1c(C)[nH]c(C)c1S(=O)(=O)NCC(=O)NCc1ccccc1Cl | inactive: -12.2%
COc1cccc(CNC(=O)CCCCCn2c(=O)[nH]c3cc(OC)c(OC)cc3c2=O)c1 | inactive: -14.3%
CCN1C(=O)c2ccccc2S(=O)c2ccc(C(=O)N3CCN(c4ccccc4OC)CC3)cc21 (stereo not given) | inactive: -0.253%
CCOc1ccccc1C(=O)Nc1ccc(S(=O)(=O)Nc2ncccn2)cc1 | inactive: -28.4%
Cc1cccc(Cc2c(C)nc3nc(SCc4ccccc4F)nn3c2C)c1 | inactive: 13.4%
CC(C)=CCC/C(C)=C/CC/C(C)=C/C(=O)OCC(=O)[C@@]1(O)CC[C@H]2[C@@H]3CCC4=CC(=O)C=C[C@]4(C)[C@H]3[C@@H](O)C[C@@]21C | inactive: -10.3%
COc1ccccc1NC(=O)CSc1oc(-c2ccccc2)nc1S(=O)(=O)c1ccccc1 | inactive: -22.8%
COc1ccc2c(c1)c1c(c(=O)n(-c3cccc(C)c3)c(=O)n1CC(=O)NCC1CCCO1)n2C (stereo not given) | inactive: 0.3%
COc1cc(-c2oc3ccc(C)cc3c(=O)c2O)cc(OC)c1OC | inactive: -19.1%
Cc1cc2c(n1-c1ccc(C(=O)NCc3ccc(OC(C)C)cc3)cc1)CCCC2 | inactive: 15.2%

SMILES | activation
COc1ccccc1CNC(=O)CCCn1c(=O)c2ccccc2n(Cc2ccccc2C#N)c1=O | inactive: 0.223%
O=C(Nc1ccc(-c2nc3cc(NC(=O)c4ccc(Cl)cc4)ccc3o2)cc1)c1ccc(Cl)cc1 | inactive: -11.7%
CCCN(CCC)C(=O)C1CCCN(S(=O)(=O)c2cc(Br)cc3c2N(C(=O)CC)CC3)C1 (stereo not given) | inactive: -23.2%
COc1ccc(-c2cc(C(F)(F)F)n3nc(C(=O)Nc4sc5c(c4C(=O)OC(C)C)CCC(C)C5)cc3n2)cc1 (stereo not given) | inactive: -11%
CCc1ccc(C(=O)NC2=NC(c3cc(OC)ccc3OC)CC(=O)N2)cc1 (stereo not given) | inactive: -8.82%
COC(=O)c1ccc(-c2nc(-c3ccc(OC)c(OC)c3)no2)cc1 | inactive: 12.8%
CC(=O)Nc1ccc(NC(=O)C(c2ccccc2)N2Cc3ccccc3C2=O)cc1 (stereo not given) | inactive: -22.6%
Cc1ccc(-c2nn(C)c(=O)c3ccccc23)cc1S(=O)(=O)NCCCN(C)C | inactive: -19.3%
Cc1ccc(CCNC(=O)CCn2nc(-c3ccc(Cl)cc3)ccc2=O)cc1 | inactive: 1.86%
O=S(=O)(c1ccc(Br)cc1)c1nnn2c1nc(NCCc1ccccc1)c1sccc12 | inactive: -15.1%
Cc1ccc(-c2onc(C)c2C)cc1S(=O)(=O)Nc1cccc(Cl)c1C | inactive: -9.01%
COc1ccc(N2C(=O)CCSC23C(=O)N(Cc2ccc(F)cc2)c2ccccc23)cc1 (stereo not given) | inactive: -6.64%
Cc1nc2ccc(S(=O)(=O)NC(C(=O)N3CCN(c4cccc(Cl)c4)CC3)C(C)C)cc2s1 (stereo not given) | inactive: -8.94%
CCc1ccc(-n2nc(CO)c(C(=O)NCc3cccnc3)n2)cc1 | inactive: -10.8%
Cc1cc(C)cc(NC(=O)CCc2c(C)nc3c(c2C)c(=O)n(C)c(=O)n3C)c1 | inactive: -0.73%
O=C(c1ccc2c(c1)N(Cc1ccc(Cl)cc1)C(=O)c1ccccc1S2(=O)=O)N1CCN(Cc2ccccc2)CC1 | inactive: -2.66%
COCCNC(=O)c1cnn(-c2cccc(C)c2)c1-n1cccc1 | inactive: -5.14%
CC1CCN(S(=O)(=O)c2cc(C(=O)NCc3ccccc3)n(C)c2)CC1 | inactive: -5.28%
COc1cc2ncc3c(-c4ccccc4)nn(CC(=O)NC4CCCCC4)c3c2cc1OC | inactive: -6.49%
Cc1nc(N2CCCC2)ncc1C(=O)NCc1ccc(F)cc1 | inactive: -12.6%
Cc1cn2c(=O)c(S(=O)(=O)Nc3ccc(N4CCOCC4)cc3)c(C)nc2s1 | inactive: -1.48%
Fc1cccc(-c2nnn3c2nc(NCc2ccc4c(c2)OCO4)c2ccccc23)c1 | inactive: -1.59%
Cc1cc(N2CCC(C(=O)Nc3ccccc3Cl)CC2)n2nc(C)c(-c3ccc(Cl)cc3)c2n1 | inactive: -12.2%
